# Experimental data as given in the supplement of paper PMC3334620.
# Over roughly 33,000 sequences, “E-score (-0.5 to 0.5)” has its median near -0.041; the highest 2% begin near 0.37. The list shows a part of the results.
# Molecular target: T1, Ecm22 (UniProt Q05958)
# T1 sequence: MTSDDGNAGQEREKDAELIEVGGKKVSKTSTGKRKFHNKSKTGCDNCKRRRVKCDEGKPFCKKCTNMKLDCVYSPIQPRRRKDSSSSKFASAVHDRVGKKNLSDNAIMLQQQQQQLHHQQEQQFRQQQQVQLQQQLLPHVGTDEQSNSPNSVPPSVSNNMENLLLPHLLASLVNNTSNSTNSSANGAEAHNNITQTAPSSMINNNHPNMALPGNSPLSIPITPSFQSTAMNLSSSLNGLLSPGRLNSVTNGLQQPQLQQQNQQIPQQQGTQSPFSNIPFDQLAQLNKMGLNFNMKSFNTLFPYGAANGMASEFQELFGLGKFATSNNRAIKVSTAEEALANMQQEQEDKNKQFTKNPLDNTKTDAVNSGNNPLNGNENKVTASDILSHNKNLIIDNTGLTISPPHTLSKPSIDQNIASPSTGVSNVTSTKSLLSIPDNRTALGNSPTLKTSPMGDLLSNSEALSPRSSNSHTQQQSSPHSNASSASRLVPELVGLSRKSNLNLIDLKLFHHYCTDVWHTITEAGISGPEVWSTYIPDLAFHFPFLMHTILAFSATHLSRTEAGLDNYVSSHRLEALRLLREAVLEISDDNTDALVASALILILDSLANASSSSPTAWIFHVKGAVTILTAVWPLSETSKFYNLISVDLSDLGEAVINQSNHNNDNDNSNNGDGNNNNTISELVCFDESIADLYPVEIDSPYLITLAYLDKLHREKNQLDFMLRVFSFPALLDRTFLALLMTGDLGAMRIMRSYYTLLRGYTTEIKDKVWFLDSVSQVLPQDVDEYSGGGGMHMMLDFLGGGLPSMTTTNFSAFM
# Test: PBM E-score (8-mer binding enrichment) (E-score (-0.5 to 0.5)); higher = stronger / more preferred TF binding; most listed sequences are background and not binding sites
# Conditions: protein concentration: 200 nM; construct: GST-full length
# Experimental: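 Universal 'all 10-mer' protein binding microarrays (Agilent AMADID 015681) probed with GST-tagged S. cerevisiae TFs (full-length or DBD) made by in vitro transcription/translation (PURExpress), about 100-200 nM. Bound TF was detected with fluorescent anti-GST. Each ungapped 8-mer (which stands for itself and its reverse complement) is scored by the PBM enrichment score (E-score), a modified Wilcoxon-Mann-Whitney statistic from -0.5 to +0.5, computed with the Universal PBM Analysis Suite. Scale: above 0.35 generally sequence-specific binding.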
row,Sequence,PBM E-score
1,ACACAGGC,-0.0291
2,GAACGTTA,0.205
3,GGATACTA,-0.144
4,AAGAGTGG,-0.00177
5,GATCCCCC,-0.217
6,GGAACCAA,-0.114
7,CCGTCCAG,0.00866
8,TAACGCAA,0.144
9,CCGCGTAG,-0.00811
10,GCTAAGCC,-0.254
11,GATGATGC,-0.0768
12,GTGCCATA,-0.0634
13,AGTGCAAC,-0.0754
14,AAACGCAA,0.139
15,GTGTGGTA,0.0384
16,GTGCTCGA,0.0388
17,CGCAATAC,0.06
18,GAGCATCC,-0.0877
19,GAGATGAC,-0.165
20,GGTCGATA,0.0384
21,CGACTCCA,0.0509
22,ATACGGCC,0.388

row,Sequence,PBM E-score
1,CGGACATA,0.155
2,CCCCATCG,0.125
3,GTGGTGCA,-0.177
4,GCCGATCC,0.111
5,GCCAAATA,0.0601
6,CCATCTGC,0.0169
7,AACCAGAC,0.00521
8,GACAGCCC,-0.157
9,CCGTAGGC,-0.192
10,ACATGCAC,0.0253
11,CTGATTAC,-0.0481
12,GGATAGTA,0.0415
13,GTCACCGA,0.0538
14,TATTAGCA,0.0512
15,CTGTATTA,-0.0817
16,AGTCTCAT,-0.19
17,CACATGTA,-0.0246
18,CCCAGTTA,-0.0924
19,ACCGCCCG,-0.0446
20,CGTTGGTA,0.223
21,ATAATATC,0.106
22,GACTTTGA,0.109

row,Sequence,PBM E-score
1,CCCAGTGA,-0.237
2,AAGTCGGG,-0.0466
3,CTCGACAC,-0.0036
4,CTAGGGAA,-0.165
5,CTATTGGA,-0.257
6,CATGCTTC,-0.0537
7,CGCGGTCC,0.0782
8,AAATGAAC,0.0804
9,GACAGATA,0.109
10,GTCATTAA,0.0869
11,CAGCTACG,0.173
12,GCCACGTA,0.16
13,GGGAAATA,-0.147
14,CTATCTGC,-0.131
15,CCCGCAGC,-0.0168
16,CAACGGCA,0.0563
17,GGCAGTTA,-0.248
18,GATCGCAA,0.118
19,AGTGATGG,-0.184
20,CACCTGGG,-0.227
21,AGCCACGA,-0.0771
22,GAACGTCC,0.0563

row,Sequence,PBM E-score
1,AACTATGA,-0.144
2,TAGAAAAA,-0.0164
3,ATGGTAAC,0.0596
4,CCATCGAC,-0.223
5,ATCGATAC,0.121
6,AGGATAAC,0.00941
7,AGGCCATA,-0.143
8,ACTTAGTG,-0.133
9,CTACGCAA,-0.0129
10,CCTAGCAG,-0.263
11,GTTGGTTA,0.00321
12,AGTTTACG,0.312
13,AGTCTTAT,-0.218
14,CCCCTAGA,-0.251
15,AGAAATCA,-0.0993
16,CCACACAC,-0.0415
17,AACGCGCG,0.294
18,CTCCGGAC,-0.00105
19,GGTCTCGA,0.119
20,GACGGTCA,-0.155
